In PMC9911399, “Two distinct binding modes provide the RNA-binding protein RbFox with extraordinary sequence specificity”:
Numbering of substitutions follows the chain as printed; changes in the protein carry UniProt numbers. The list shows a part of the results.

T1: RBFOX1 RRM RbFoxmut (Fox-RRM*) (Homo sapiens, UniProt Q9NWB1 109-208, R118D;E147R;N151S;E152T)
T1 sequence: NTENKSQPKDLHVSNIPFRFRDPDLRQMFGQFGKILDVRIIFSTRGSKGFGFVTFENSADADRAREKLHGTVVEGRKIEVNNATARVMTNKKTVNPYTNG

B1: GAGGCCG (DNA:RNA)
RNA: GGGAGACCGGAAUUCAGAUUGUCCGAGGCCGUUAAAUCCCGUCGUAGCCACCA
DNA 1: CAATCTGAATTCCGGTCTCCC
DNA 2: TGGTGGCTACGACGGGATT
B2: ACUCCAU (DNA:RNA)
RNA: B1 RNA with G25A, A26C, G27U, G28C, C30A, G31U
DNA 1: CAATCTGAATTCCGGTCTCCC
DNA 2: TGGTGGCTACGACGGGATT
B3: AAUUUUG (DNA:RNA)
RNA: B1 RNA with G25A, G27U, G28U, C29U, C30U
DNA 1: CAATCTGAATTCCGGTCTCCC
DNA 2: TGGTGGCTACGACGGGATT
B4: GACGAGU (DNA:RNA)
RNA: B1 RNA with G27C, C29A, C30G, G31U
DNA 1: CAATCTGAATTCCGGTCTCCC
DNA 2: TGGTGGCTACGACGGGATT
B5: ACCGCUG (DNA:RNA)
RNA: B1 RNA with G25A, A26C, G27C, C30U
DNA 1: CAATCTGAATTCCGGTCTCCC
DNA 2: TGGTGGCTACGACGGGATT
B6: AGUUCCA (DNA:RNA)
RNA: B1 RNA with G25A, A26G, G27U, G28U, G31A
DNA 1: CAATCTGAATTCCGGTCTCCC
DNA 2: TGGTGGCTACGACGGGATT
B7: AGUCCGC (DNA:RNA)
RNA: B1 RNA with G25A, A26G, G27U, G28C, C30G, G31C
DNA 1: CAATCTGAATTCCGGTCTCCC
DNA 2: TGGTGGCTACGACGGGATT
B8: GACCUGC (DNA:RNA)
RNA: B1 RNA with G27C, G28C, C29U, C30G, G31C
DNA 1: CAATCTGAATTCCGGTCTCCC
DNA 2: TGGTGGCTACGACGGGATT
B9: AUACGUU (DNA:RNA)
RNA: GGGAGACCGGAAUUCAGAUUGUCCAUACGUUUUAAAUCCCGUCGUAGCCACCA
DNA 1: CAATCTGAATTCCGGTCTCCC
DNA 2: TGGTGGCTACGACGGGATT
B10: UUCACUU (DNA:RNA)
RNA: B9 RNA with A25U, A27C, C28A, G29C
DNA 1: CAATCTGAATTCCGGTCTCCC
DNA 2: TGGTGGCTACGACGGGATT
B11: AGAUCUA (DNA:RNA)
RNA: B9 RNA with U26G, C28U, G29C, U31A
DNA 1: CAATCTGAATTCCGGTCTCCC
DNA 2: TGGTGGCTACGACGGGATT
B12: AGCGGAU (DNA:RNA)
RNA: B9 RNA with U26G, A27C, C28G, U30A
DNA 1: CAATCTGAATTCCGGTCTCCC
DNA 2: TGGTGGCTACGACGGGATT
B13: UCUCAAC (DNA:RNA)
RNA: B9 RNA with A25U, U26C, A27U, G29A, U30A, U31C
DNA 1: CAATCTGAATTCCGGTCTCCC
DNA 2: TGGTGGCTACGACGGGATT
B14: CAACGAC (DNA:RNA)
RNA: B9 RNA with A25C, U26A, U30A, U31C
DNA 1: CAATCTGAATTCCGGTCTCCC
DNA 2: TGGTGGCTACGACGGGATT
B15: CUACACC (DNA:RNA)
RNA: B9 RNA with A25C, G29A, U30C, U31C
DNA 1: CAATCTGAATTCCGGTCTCCC
DNA 2: TGGTGGCTACGACGGGATT
B16: CGUUUUG (DNA:RNA)
RNA: B9 RNA with A25C, U26G, A27U, C28U, G29U, U31G
DNA 1: CAATCTGAATTCCGGTCTCCC
DNA 2: TGGTGGCTACGACGGGATT
B17: CGGCCAG (DNA:RNA)
RNA: B1 RNA with G25C, A26G, G28C, C30A
DNA 1: CAATCTGAATTCCGGTCTCCC
DNA 2: TGGTGGCTACGACGGGATT
B18: AAUGGUA (DNA:RNA)
RNA: B9 RNA with U26A, A27U, C28G, U31A
DNA 1: CAATCTGAATTCCGGTCTCCC
DNA 2: TGGTGGCTACGACGGGATT
B19: CUACUAG (DNA:RNA)
RNA: B9 RNA with A25C, G29U, U30A, U31G
DNA 1: CAATCTGAATTCCGGTCTCCC
DNA 2: TGGTGGCTACGACGGGATT
B20: UAUGCUC (DNA:RNA)
RNA: B1 RNA with G25U, G27U, C30U, G31C
DNA 1: CAATCTGAATTCCGGTCTCCC
DNA 2: TGGTGGCTACGACGGGATT

target: T1, RBFOX1 RRM RbFoxmut (Fox-RRM*); experiment: EMSA; HiTS-Eq, 1 nM pool, 10 min; buffer printed only for the single-RNA assays: 10 mM Tris pH 7.5, 150 mM NaCl, 3.4 mM EDTA, 0.001% NP-40, 30 C; details: tags: His6 N-terminal (pET28a); label: 5' 32P
Method in brief: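 Purified wild-type or mutant RbFox RRM at increasing concentrations was equilibrated with 1 nM of 5′-radiolabelled RNA carrying 7 randomized nucleotides for 10 min in 50 µL. Unbound RNA was separated by 8% native PAGE and sequenced. Relative association constants came from read-count changes of each RNA species compared with the control reaction, normalised to the cognate motif.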

Binder	binding signal
B1	0.123 KA relative to UGCAUGU
B2	0.102 KA relative to UGCAUGU
B3	0.0986 KA relative to UGCAUGU
B4	0.102 KA relative to UGCAUGU
B5	0.081 KA relative to UGCAUGU
B6	0.0726 KA relative to UGCAUGU
B7	0.092 KA relative to UGCAUGU
B8	0.0774 KA relative to UGCAUGU
B9	0.114 KA relative to UGCAUGU
B10	0.0764 KA relative to UGCAUGU
B11	0.0823 KA relative to UGCAUGU
B12	0.117 KA relative to UGCAUGU
B13	0.0553 KA relative to UGCAUGU
B14	0.0723 KA relative to UGCAUGU
B15	0.0601 KA relative to UGCAUGU
B16	0.133 KA relative to UGCAUGU
B17	0.0695 KA relative to UGCAUGU
B18	0.148 KA relative to UGCAUGU
B19	0.094 KA relative to UGCAUGU
B20	0.0683 KA relative to UGCAUGU
